± gives the standard deviation of the averaged measurements. Some of the results follow.
What follows are sequences tested on PfAP2-EXP AP2 domain (GST-tagged) (assay: gcPBM binding intensity (ln(normalized median fluorescence intensity)); higher = stronger DNA binding).
Outline: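 DNA-binding domains from P. falciparum, fused to GST and produced in E. coli, were put on an Agilent 4 × 180k double-stranded probe array for 1 h in 1× PBS holding 1% milk, 0.2 mg/ml BSA, 0.5% salmon testes DNA and 0.03% Triton X-100. Probes were primer-extended, 36 bp long and drawn from intergenic genomic regions, with negative controls included. After Alexa488 anti-GST antibody detection and a 488 nm scan, binding intensity was set as the highest Masliner-normalised natural-log median intensity across replicate spots of either probe orientation.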

| Sequence | gcPBM binding intensity (ln) |
| --- | --- |
| TAGTTTTTTATATATTGTACTTAGAATATATTATAT [XGTACX_site3662] | 8.37 ± 0.33 |
| TTTTTAATTTACTGTCATAGGTACCTTAACTTATCA [CACACA_negctrl_site1664] | 8.72 ± 0.49 |
| TGAATAAAGAAACACACACACATATATATATATGTA [CACACA_site17] | 8.52 ± 0.44 |
| TATTAATAATTTTCATGTACATATGTATTTGTAATA [XGTACX_site858] | 8.55 ± 0.31 |
| ATATAATAAATGTCATGTACATACAACATTTTAACT [XGTACX_site7517] | 8.43 ± 0.35 |
| TACATATACATATTGTGTACATAATAATTATTTATA [XGTACX_site7884] | 8.53 ± 0.32 |
| TACTTATGTTCGCACACATGCAAATTAAAAAAAAAA [TGCATGCA_site1023] | 8.69 ± 0.42 |
| TTAATTAAGAAACACACACACATATATATATATATT [CACACA_site2290] | 8.67 ± 0.42 |
| TTATATATATGACTTTGTACATATACATATTTTTTA [XGTACX_site4669] | 8.21 ± 0.39 |
| GTATATTTTATTTTATGTACATATTCATTTTTTATT [XGTACX_site561] | 9.18 ± 0.28 |
| TCTCTTTTTCGTTCATGTACAAATAAATAAAAATAT [XGTACX_site6558] | 8.69 ± 0.31 |
| TATTATATATATGCACGTACAAAAATAATAAAGGTA [XGTACX_site3506] | 8.98 ± 0.16 |
| GTGGATATATGTATATGTACATATGTATGTATATAT [XGTACX_site2412] | 8.74 ± 0.43 |
| ATTTTTTTACTGGATCCATATTTGCTTTTTTATTTA [CACACA_negctrl_site1108] | 9.11 ± 0.53 |
| TTTAAAATTTAATTTTGTACATATACCAATTTTATT [XGTACX_site448] | 8.16 ± 0.057 |
| ATATAAATATGAAAAAGTACAAGCCATCAAGAAATC [XGTACX_site8140] | 8.82 ± 0.46 |
| ATATAATGTTAGGGTAGAGGAAGTAACTAATATAAA [CACACA_negctrl_site1153] | 8.74 ± 0.49 |
| AATTTTTTATTCTTTGCATGTCATCATATATAATAT [TGCATGCA_site549] | 9.15 ± 0.35 |
| ATATAATATATGTTATGTACATAGTTTTTATTGTTC [XGTACX_site7438] | 8.57 ± 0.28 |
| AATATATAATCAGATGAATTTTTTTTTTTTTTTTCA [CACACA_negctrl_site534] | 7.93 ± 0.49 |
| AATTAGCATAAATGGGTGCTACACAAAAATGCATGT [GTGCAC_site9640] | 8.91 ± 0.33 |
| TATAAATATTATAATTGTACATATTATAAAAATTTT [XGTACX_site2719] | 8.32 ± 0.39 |
| TGTGTATAAAAAAAGTGTACACAAAGTAAGACTTTA [XGTACX_site3759] | 8.84 ± 0.33 |
| AGCAACTAAAAAGGATACCCCATTAAAAAAAAATTA [XGTACX_negctrl_site489] | 8.35 ± 0.55 |

From the supplement of paper PMC11417369
